Source: paper PMC4336329 (PLoS ONE, 2015)
In all, about 310,000 compounds went through this assay and about 14,000 (4.5%) showed an effect of 50% or more. The effect is printed as a negative number. Some of the results follow.

These compounds were tested against human ether-à-go-go-related gene (hERG) potassium channel (human, UniProt Q12809) (assay: primary screen, population patch clamp on CHO cells stably expressing hERG).
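Note: peak tail current of the secondary pulse compared with the same well before compound.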

Chain of human ether-à-go-go-related gene (hERG) potassium channel (Q12809 whole entry, looked up): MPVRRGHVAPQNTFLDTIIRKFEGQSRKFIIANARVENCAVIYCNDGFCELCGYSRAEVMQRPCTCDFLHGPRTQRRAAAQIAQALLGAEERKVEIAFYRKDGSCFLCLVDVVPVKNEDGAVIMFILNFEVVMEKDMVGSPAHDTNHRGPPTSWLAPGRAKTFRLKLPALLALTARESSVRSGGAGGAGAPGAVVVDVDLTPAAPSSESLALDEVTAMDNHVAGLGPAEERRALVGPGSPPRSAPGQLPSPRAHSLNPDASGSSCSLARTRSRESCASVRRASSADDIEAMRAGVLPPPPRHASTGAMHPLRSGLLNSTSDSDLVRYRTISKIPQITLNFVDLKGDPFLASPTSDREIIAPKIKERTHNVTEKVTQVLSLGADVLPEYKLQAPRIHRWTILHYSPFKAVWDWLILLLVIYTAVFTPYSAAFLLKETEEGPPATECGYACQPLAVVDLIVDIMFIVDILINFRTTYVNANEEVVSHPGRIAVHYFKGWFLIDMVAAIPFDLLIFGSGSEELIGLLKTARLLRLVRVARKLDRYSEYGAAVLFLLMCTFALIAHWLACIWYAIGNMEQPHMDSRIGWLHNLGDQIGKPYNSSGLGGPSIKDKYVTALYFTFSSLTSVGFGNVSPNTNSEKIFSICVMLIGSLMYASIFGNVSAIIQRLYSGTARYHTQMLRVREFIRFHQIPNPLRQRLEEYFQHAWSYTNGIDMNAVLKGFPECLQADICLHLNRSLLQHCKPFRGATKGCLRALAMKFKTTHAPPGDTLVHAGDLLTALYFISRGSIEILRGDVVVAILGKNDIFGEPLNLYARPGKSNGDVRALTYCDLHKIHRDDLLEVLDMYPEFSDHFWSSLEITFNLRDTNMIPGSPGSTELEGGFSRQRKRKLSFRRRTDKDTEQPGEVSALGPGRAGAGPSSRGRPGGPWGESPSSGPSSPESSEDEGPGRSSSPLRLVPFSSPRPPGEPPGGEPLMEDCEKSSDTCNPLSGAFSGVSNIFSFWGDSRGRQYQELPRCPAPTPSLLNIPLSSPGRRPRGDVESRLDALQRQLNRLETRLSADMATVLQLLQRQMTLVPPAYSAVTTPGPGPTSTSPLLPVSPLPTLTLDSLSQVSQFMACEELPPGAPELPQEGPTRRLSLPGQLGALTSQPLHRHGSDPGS

SMILES	hERG current change (%, negative = inhibition) at 10uM [%]
CCCOc1ccc(-c2c(C(=O)N/N=C(\C)c3cccnc3)nnn2-c2nonc2N)cc1	21.6
COC(=O)c1ccc(NC(=O)CSc2nc(=O)cc(N)n2-c2ccccc2)cc1	12.8
Cc1c(NC(=O)CSc2nnc(-c3ccncc3)o2)c(=O)n(-c2ccccc2)n1C	0.168
Cc1cc(C(=O)CSc2nnc(-c3ccccc3)n2Cc2ccc3c(c2)OCO3)c(C)n1C	14
N#Cc1ccccc1NC(=O)c1ccc2c(c1)OCCO2	-0.635
O=C(Nc1ccccc1)Nc1nnc(-c2ccccc2)s1	7.02
COc1ccc(CCNC(=O)CN2CCN(S(=O)(=O)c3ccc(Cl)cc3)CC2)cc1OC	-25
O=c1[nH]nc(SCc2nnc(-c3cccc(Cl)c3)o2)n1C1CCCCC1	14.1
COc1ccc(CC(=O)N2CCN(c3ccccc3)CC2)cc1	5.41
O=C(O)C(O)(c1ccccc1)C1CCCC1 (stereo not shown)	19.2
Cc1c(C(C)NC(=O)Nc2ccc(F)cc2F)cnn1C (stereo not shown)	15.2
COCCNC(=O)CCc1nnc(Cc2ccc(-c3ccccc3)cc2)o1	14.5
CCN(CC)S(=O)(=O)c1ccc(NC(=O)COC(=O)c2ccc(NC(=O)CC#N)cc2)cc1	20.5
COC(=O)CSc1nc2c(cnn2-c2ccc(Cl)cc2)c(=O)[nH]1	18.2
CC(=O)N1CCN(c2ccccc2NC(=O)c2ccco2)CC1	-38.9
Cc1cc(Nc2ccc(Br)cc2F)n2ncnc2n1	-4.69
Cc1ccc(Nc2nnc(SCc3cc(=O)n4cc(C)ccc4n3)s2)cc1	-36.6
C=CCN1C(=O)c2ccc(C(=O)N(CC)CC(=O)Nc3ccc(OC)cc3)cc2C1=O	-20
CN(C)CCNC(=O)c1c(NC(=O)c2ccccc2)sc2c1CCCC2	-25.9
CC(C)C(NC(=O)c1ccc(Cl)cc1)C(=O)NC1=NCCS1 (stereo not shown)	-0.136
COc1cc2c3c(c1OC)C1(C=CC(=NO)C=C1)CC3N(C(C)=O)CC2 (stereo not shown)	13.8
O=C(CN1C(=O)CN=C(c2ccccc2)c2ccccc21)NCc1ccco1	9.96

SMILES	hERG current change (%, negative = inhibition) at 10uM [%]
Cc1cc(C)cc(N(C(=O)c2ccccn2)C(C(=O)NC2CCCCC2)c2cccs2)c1 (stereo not shown)	-4.72
CC(CC(F)(F)F)N1CCC(n2nccc2NC(=O)CCCc2ccccc2)CC1 (stereo not shown)	-28.7
O=S(=O)(c1ccccc1)c1nc(-c2ccco2)oc1NCCCn1ccnc1	-65.6
COc1ccc2cc(C(=O)C3CCCN(C(=O)CCc4ccccn4)C3)ccc2c1 (stereo not shown)	-45.2
CC(=O)c1ccc(N2CCN(C(=O)CCS(=O)(=O)c3ccc(C)cc3)CC2)cc1	-41
CCOC(=O)c1cc(C(C)=O)c(=O)[nH]c1C	12
Brc1ccc(-n2cccc2/C=N/n2cnnc2)cc1	-25.1
NC(=O)/C(=C/c1ccco1)NC(=O)/C=C/c1ccccc1	-5.56
Cn1cnnc1SCc1ccccc1Br	6.03
Cc1ccc(O)c(C(=O)c2coc(=N)c(C(=O)NC(C)C)c2)c1	-18.5
CS(=O)(=O)CCC(C(=O)n1nnc2ccccc21)N1C(=O)c2ccccc2C1=O (stereo not shown)	-3.22
O=C(COc1ccc2ccc(=O)oc2c1)Nc1c(Cl)cccc1C(F)(F)F	7.37
CCN1C(=O)[C@@H]2[C@@H](c3ccc(-c4ccc(C(C)=O)cc4)c(OC)c3)N3CCCC[C@@]3(C(=O)OC)[C@@H]2C1=O.O=C(O)C(F)(F)F	6.13
CCn1c(=O)c(-c2nc3ccccc3[nH]2)c(O)c2ccccc21	18.7
N#Cc1nc(-c2ccccc2Cl)oc1N1CCN(C(=O)c2ccco2)CC1	-9.47
CCOC(=O)C1Cc2ccccc2C(=O)O1 (stereo not shown)	14.5
O=C(CCSc1nnnn1-c1ccccc1)N1CCOCC1	-6.01
COP(=O)(CC(=O)O)c1ccccc1 (stereo not shown)	-5.99
Cc1cc(C)cc(NC(=O)N2CCCN(c3ncccc3[N+](=O)[O-])CC2)c1	-9.01
Cc1cc(C(=O)COc2ccc(Cl)cc2Br)c(C)n1C	11.7
CC(/C=N/NC(=O)NC1CCCCC1)=C\c1ccccc1	76.6
